Results published in publication PMC4336329 (PLoS ONE, 2015).
The campaign covered roughly 310,000 compounds. About 2,200 (0.71%) showed an effect of 50% or more. The effect is printed as a negative number. The list shows a part of the results.

molecular target: human ether-à-go-go-related gene (hERG) potassium channel (human, UniProt Q12809); test: primary screen, population patch clamp on CHO cells stably expressing hERG
Sequence (Q12809 whole entry, looked up): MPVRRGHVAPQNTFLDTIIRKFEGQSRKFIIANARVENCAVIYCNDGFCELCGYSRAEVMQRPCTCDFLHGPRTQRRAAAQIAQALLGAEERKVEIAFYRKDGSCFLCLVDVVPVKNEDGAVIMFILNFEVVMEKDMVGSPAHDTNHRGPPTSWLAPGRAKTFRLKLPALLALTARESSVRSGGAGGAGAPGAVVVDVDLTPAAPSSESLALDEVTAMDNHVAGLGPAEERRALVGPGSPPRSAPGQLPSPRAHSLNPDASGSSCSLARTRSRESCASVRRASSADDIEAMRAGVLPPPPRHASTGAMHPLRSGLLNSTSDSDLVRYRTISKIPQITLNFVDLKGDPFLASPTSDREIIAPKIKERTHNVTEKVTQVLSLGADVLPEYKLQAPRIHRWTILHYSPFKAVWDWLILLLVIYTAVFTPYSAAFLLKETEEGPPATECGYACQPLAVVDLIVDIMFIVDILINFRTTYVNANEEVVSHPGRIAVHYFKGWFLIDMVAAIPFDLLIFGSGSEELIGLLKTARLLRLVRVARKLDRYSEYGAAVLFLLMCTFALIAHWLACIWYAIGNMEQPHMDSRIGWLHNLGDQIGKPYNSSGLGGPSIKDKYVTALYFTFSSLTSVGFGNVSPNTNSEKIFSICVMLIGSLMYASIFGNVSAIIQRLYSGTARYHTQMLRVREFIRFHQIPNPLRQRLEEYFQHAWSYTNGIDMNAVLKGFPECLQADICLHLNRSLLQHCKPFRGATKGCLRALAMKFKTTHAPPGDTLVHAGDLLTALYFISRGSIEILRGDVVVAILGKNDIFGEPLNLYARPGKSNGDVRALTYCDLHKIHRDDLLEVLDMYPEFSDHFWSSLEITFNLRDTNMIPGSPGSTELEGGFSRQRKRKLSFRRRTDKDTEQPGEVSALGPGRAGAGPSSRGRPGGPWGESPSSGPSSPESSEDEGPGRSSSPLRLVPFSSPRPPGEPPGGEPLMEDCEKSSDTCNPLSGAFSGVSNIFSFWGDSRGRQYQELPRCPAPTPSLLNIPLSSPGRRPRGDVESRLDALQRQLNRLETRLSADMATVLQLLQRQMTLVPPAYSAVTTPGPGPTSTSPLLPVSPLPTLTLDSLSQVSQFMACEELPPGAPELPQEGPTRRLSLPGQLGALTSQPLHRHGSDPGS

Structure (SMILES) | hERG current change (%, negative = inhibition) at 1uM
COc1ccc(NC(=O)CSc2nc(C)cc(C(F)(F)F)n2)cc1 | -3.19%
CC(=O)Nc1ccc(NS(=O)(=O)c2ccc3ccccc3c2)cc1 | 5.46%
O=C1NN(c2cccc(Br)c2)C(=O)/C1=C/c1ccc(-c2cc([N+](=O)[O-])ccc2O)o1 | 7.2%
Cc1ccnc(NC(=O)c2cc([N+](=O)[O-])cc([N+](=O)[O-])c2)c1 | 12.5%
CCNC(=O)OCC(CC)NC(=O)OCC(C)C (stereo not shown) | 5.98%
CC(Sc1nnc(N)s1)c1ccccc1Cl (stereo not shown) | 1.31%
COc1ccc(-c2nc3ccccc3c(=O)n2-c2nccs2)cc1 | 12.7%
CC(C)CC(=O)NC(NC(=S)Nc1cccc2cccnc12)C(Cl)(Cl)Cl (stereo not shown) | 12.1%
O=C(NCCC1=CCCCC1)C1COc2ccccc2O1 (stereo not shown) | -4.32%
CCC(=O)NC1CCN(C(=S)NC)CC1 | 9.41%
CCN1CCN(CCNC(=O)c2cc(Cl)c(NC(=O)C3=C(C)OCCS3)cc2OC)CC1 | -38.5%
O=C(Nc1nc2cc3c(cc2s1)OCO3)c1cccc(N2C(=O)CCC2=O)c1 | 10.6%
COc1ccc(-c2nsc(SCC(=O)Nc3cc(C)on3)n2)cc1 | 11.9%
O=C(Nc1ccc(N2CCN(C(=O)c3ccccc3)CC2)cc1)c1cc([N+](=O)[O-])ccc1N1CCOCC1 | -1.34%
COc1ccc(N2C(=O)[C@@H]3[C@H](C2=O)[C@H]2c4ccccc4C=CN2[C@@H]3C(C)=O)cc1 | 19.4%
CCC(C)c1ccccc1N1CC(C(=O)N2CCN(S(=O)(=O)c3ccccc3Br)CC2)CC1=O (stereo not shown) | -8.57%
O=C1/C(=C\c2ccc(O)c(O)c2)SC(=S)N1Cc1ccccc1 | 12.3%
CCOC(=S)NC(=O)c1sc2ccccc2c1Cl | 12.2%
Cc1nn(-c2ccc(NC(=O)c3ccncc3)cc2)c(C)c1Cl | 15.7%
O=C(Nc1cccc(S(=O)(=O)N2CCOCC2)c1)c1ccco1 | 4.81%

Structure (SMILES) | hERG current change (%, negative = inhibition) at 1uM
NP(=O)(OCCCc1ccccc1)Oc1ccccc1 (stereo not shown) | 11.1%
COc1cc2c(cc1OC)C(C(=O)O)C(c1cc(Br)c(O)c(OC)c1)N(C)C2=O (stereo not shown) | 12.9%
CCN(Cc1ccc(O)cc1)CC1CCCN(CCc2cccc(F)c2)C1 (stereo not shown) | -8.8%
C=CCn1c(SCC(=O)OCC)nc(C(F)(F)F)cc1=O | 2.47%
CN(CC(=O)Nc1ccc(F)c(F)c1F)C(=O)c1ccc2c(c1)NC(=O)CS2 | 6.46%
Brc1ccc(-c2nnc(-c3cccc(Br)c3)o2)cc1 | 0.517%
COC(=O)[C@H](Cc1ccccc1)NC(=O)N(C)Cc1ccccc1 | 10.4%
C=CCn1c(SCC(=O)c2[nH]c(C)c(C(=O)OCC)c2C)nc2scc(-c3ccccc3)c2c1=O | 11.2%
CC1CCc2c(sc3c2C2=NS(=O)(=O)CCN2C=N3)C1 (stereo not shown) | 15%
CN1CCN(C(=O)C2CCN(S(=O)(=O)c3ccc(F)cc3)CC2)CC1 | 9.29%
c1ccc(CSC2=NCCS2)cc1 | 7.18%
CCCCCNC(=O)Cn1c(=O)c2c(ncn2CC(C)C)n(Cc2ccccc2)c1=O | 9.23%
CCOc1ccccc1NC(=O)C1CCN(C(=O)NCc2ccccc2)CC1 | 14%
O=C(NNc1ncc(C(F)(F)F)cc1Cl)c1c(Cl)cccc1Cl | -12%
CCc1ccc(NC(=O)c2cc(C)nn2-c2ccccc2)cc1 | 13.1%
CC(=O)c1csc(-c2ccccc2)n1 | 14.6%
COC(=O)c1cnn2c(C(F)(F)F)cc(-c3ccco3)nc12 | 14.3%
CCOC(=O)C(CC)Sc1nc2c(cnn2-c2ccccc2)c(=O)[nH]1 (stereo not shown) | 8.79%
COCCNC(=S)N1CCN(c2nc(-c3ccccc3)cs2)CC1 | 8.47%
O=C(O)C1CCN(C(=O)c2ccccc2C(=O)N2CCC(C(=O)O)CC2)CC1 | 22.3%

Structure (SMILES) | hERG current change (%, negative = inhibition) at 1uM
CC1CC(=O)Nc2ccccc2N1S(=O)(=O)c1ccc(Br)cc1 (stereo not shown) | 18.9%
NC(=O)NC(=O)CSc1ccccc1 | 7.79%
CC1CC(OC(=O)CN2CCCCC2)CC(C)(C)C1 (stereo not shown) | 8.75%
CC(=O)Nc1nc2ccccc2n1Cc1ccccc1 | 8.01%
Cc1ccc2[nH]c(SCC(=O)N3CCOCC3)nc2c1C | 3.17%
CC(=O)N1CCSc2ccc(S(=O)(=O)Nc3ccccc3C)cc21 | 3.51%
CN(C)c1ccc(CNC(=O)c2cc(S(=O)(=O)N3CCCC3)cn2C)cc1 | 8.54%
Cc1nnc2sc(SCc3ccccc3Cl)nn2c1=O | -2.74%
CC(=O)C(Cc1ccccc1)NC(=O)CN(C)Cc1ccccc1Cl (stereo not shown) | 7.15%
Cc1cc(=O)oc2c(C)c(OC(C)C(=O)NCC(O)c3ccccc3)ccc12 (stereo not shown) | 12.3%
Cc1ccc(C(=O)OCC(=O)N2CC(C)CC(C)C2)cc1S(=O)(=O)N1CCCCC1 (stereo not shown) | -6.87%
COc1cc(C(=O)OCC(=O)N(CC(C)C)C2CCS(=O)(=O)C2)ccc1OCC(C)C (stereo not shown) | -9.36%
COc1ccc(N2C(=O)CC(n3cnc4ccccc43)C2=O)cc1 (stereo not shown) | 13%
COc1ccc(C(CNC(=O)C2CC(=O)N(Cc3ccc(C)cc3)C2)N(C)C)cc1 (stereo not shown) | -11.2%
O=C(CCCCCNc1nc(=S)[nH]c2ccccc12)NCc1ccccc1Cl | 5.66%
O=C(Nc1ccc(Cl)c(Cl)c1)N(CCCN1CCOCC1)Cc1cccnc1 | -5.32%
O=C(NCc1cccnc1)C(Cl)(Cl)Cl | -1.11%
CCOC(=O)c1c(NC(NC(=O)C(C)C)C(Cl)(Cl)Cl)sc2c1CCC2 (stereo not shown) | 6.26%
